According to patent US20230257470A1:

What was measured:
human FcγRIIa(H) (human) = human FcγRIIa(H) (human) (UniProt P12318); test: SPR, antibody captured, FcγR as analyte, capture-corrected binding amount
human FcγRIIb (human) = human FcγRIIb (human) (UniProt P31994); test: SPR, captured antibody, FcγR as analyte
Sequence of UniProt P31994 (P31994 43-217 limits assumed): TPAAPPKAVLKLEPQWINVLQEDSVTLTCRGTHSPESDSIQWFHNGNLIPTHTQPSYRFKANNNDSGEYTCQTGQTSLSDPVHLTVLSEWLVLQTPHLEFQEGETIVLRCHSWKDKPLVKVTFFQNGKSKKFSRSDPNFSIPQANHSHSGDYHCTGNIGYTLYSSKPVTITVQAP

Sequence of UniProt P12318 (P12318 other isoform, or with tags, fused parts or gaps limits assumed): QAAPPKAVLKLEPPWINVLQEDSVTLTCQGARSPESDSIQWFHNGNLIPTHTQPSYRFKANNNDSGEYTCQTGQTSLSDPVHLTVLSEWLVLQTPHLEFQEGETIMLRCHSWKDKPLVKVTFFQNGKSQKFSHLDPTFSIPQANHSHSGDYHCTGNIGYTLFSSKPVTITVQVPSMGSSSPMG

relative binding activity (% of GpH7-B3/GpL16-k0) (human FcγRIIa(H) (human)) | relative binding activity (% of GpH7-B3/GpL16-k0) (human FcγRIIb (human)) | Binder
9 |  | GpH7-B3 N325V/GpL16-k0 (antibody, human IgG1) heavy: QVQLVQSGAEVKKPGASVTVSCKASGYTFTDYEMHWIRQPPGEGLEWIGAIDPKTGDTAYSESFQDRVTLTADKSTSTAYMELSSLTSEDTAVYYCTRFYSYTYWGQGTLVTVSS[no letters for human IgG1 constant region with N325V K439E (EU numbers)] light: DIVMTQSPLSLPVTPGEPASISCQASESLVHSNRNTYLHWYLQKPGQSPQLLIYKVSNRFSGVPDRFSGSGSGTDFTLKISRVEAEDVGVYYCSQNTHVPPTFGQGTKVEIE
8 |  | GpH7-B3 N325I/GpL16-k0 (antibody, human IgG1) heavy: QVQLVQSGAEVKKPGASVTVSCKASGYTFTDYEMHWIRQPPGEGLEWIGAIDPKTGDTAYSESFQDRVTLTADKSTSTAYMELSSLTSEDTAVYYCTRFYSYTYWGQGTLVTVSS[no letters for human IgG1 constant region with N325I K439E (EU numbers)] light: DIVMTQSPLSLPVTPGEPASISCQASESLVHSNRNTYLHWYLQKPGQSPQLLIYKVSNRFSGVPDRFSGSGSGTDFTLKISRVEAEDVGVYYCSQNTHVPPTFGQGTKVEIE
 | 8 | GpH7-B3 variant P238T/GpL16-k0 (antibody, human IgG1) heavy: QVQLVQSGAEVKKPGASVTVSCKASGYTFTDYEMHWIRQPPGEGLEWIGAIDPKTGDTAYSESFQDRVTLTADKSTSTAYMELSSLTSEDTAVYYCTRFYSYTYWGQGTLVTVSS[no letters for human IgG1 constant region with P238T K439E (EU numbers)] light: DIVMTQSPLSLPVTPGEPASISCQASESLVHSNRNTYLHWYLQKPGQSPQLLIYKVSNRFSGVPDRFSGSGSGTDFTLKISRVEAEDVGVYYCSQNTHVPPTFGQGTKVEIE
8 |  | GpH7-B3 L328P/GpL16-k0 (antibody, human IgG1) heavy: QVQLVQSGAEVKKPGASVTVSCKASGYTFTDYEMHWIRQPPGEGLEWIGAIDPKTGDTAYSESFQDRVTLTADKSTSTAYMELSSLTSEDTAVYYCTRFYSYTYWGQGTLVTVSS[no letters for human IgG1 constant region with L328P K439E (EU numbers)] light: DIVMTQSPLSLPVTPGEPASISCQASESLVHSNRNTYLHWYLQKPGQSPQLLIYKVSNRFSGVPDRFSGSGSGTDFTLKISRVEAEDVGVYYCSQNTHVPPTFGQGTKVEIE
